# From publication PMC7303255
# Chains of the proteins cited; added tags and fusions are not shown. Lines headed by an entry give the natural chain unless they say otherwise; changes in a name come on top.
# UniProt Q39057: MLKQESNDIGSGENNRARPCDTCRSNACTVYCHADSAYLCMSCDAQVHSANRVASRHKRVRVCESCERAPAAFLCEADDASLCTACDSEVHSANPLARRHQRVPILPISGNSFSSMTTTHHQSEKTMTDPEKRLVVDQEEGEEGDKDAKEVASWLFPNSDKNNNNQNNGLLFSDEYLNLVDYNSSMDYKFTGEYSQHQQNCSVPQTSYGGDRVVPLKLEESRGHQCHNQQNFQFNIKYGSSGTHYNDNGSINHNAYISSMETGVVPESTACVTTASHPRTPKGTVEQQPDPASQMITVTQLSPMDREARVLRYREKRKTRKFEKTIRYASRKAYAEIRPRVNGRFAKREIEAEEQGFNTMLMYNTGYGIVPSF
# No constants are given. Whether binding was seen depends on the method and setting. Some entries that bind do so weakly or less than the wild type.
# T1: full-length CIA2 (CIA2FL) in pAS2-1 or pACT2 (Arabidopsis thaliana) (UniProt Q9LU68)
# T1 sequence: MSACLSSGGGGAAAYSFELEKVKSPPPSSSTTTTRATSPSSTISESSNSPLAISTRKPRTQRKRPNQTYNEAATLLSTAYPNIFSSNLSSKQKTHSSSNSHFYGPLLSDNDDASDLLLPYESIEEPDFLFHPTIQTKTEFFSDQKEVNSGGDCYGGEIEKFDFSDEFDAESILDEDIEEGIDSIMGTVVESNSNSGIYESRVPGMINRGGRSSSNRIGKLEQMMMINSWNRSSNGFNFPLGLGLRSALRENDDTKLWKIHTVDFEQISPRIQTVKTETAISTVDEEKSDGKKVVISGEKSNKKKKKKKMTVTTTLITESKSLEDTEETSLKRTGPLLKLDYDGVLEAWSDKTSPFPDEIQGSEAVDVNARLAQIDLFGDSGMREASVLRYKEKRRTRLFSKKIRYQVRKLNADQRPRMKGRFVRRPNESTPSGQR
# T2: CIA2 330-435aa fragment (Arabidopsis thaliana) (UniProt Q9LU68)
# T2 sequence: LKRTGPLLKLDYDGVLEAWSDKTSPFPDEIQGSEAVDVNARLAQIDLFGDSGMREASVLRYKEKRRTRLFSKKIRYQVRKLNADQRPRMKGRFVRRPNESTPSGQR
# T3: CIA2 1-189aa fragment (Arabidopsis thaliana) (UniProt Q9LU68)
# T3 sequence: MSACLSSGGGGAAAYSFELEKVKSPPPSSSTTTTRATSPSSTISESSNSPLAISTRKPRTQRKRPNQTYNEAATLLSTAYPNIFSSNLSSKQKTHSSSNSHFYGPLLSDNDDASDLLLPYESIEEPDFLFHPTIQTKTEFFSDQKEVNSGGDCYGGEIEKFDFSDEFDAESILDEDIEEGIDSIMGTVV
# T4: CCT motif of CIA2 (CIA2 379-435aa) (Arabidopsis thaliana) (UniProt Q9LU68)
# T4 sequence: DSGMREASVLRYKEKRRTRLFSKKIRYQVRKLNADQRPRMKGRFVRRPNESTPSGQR
# T5: CIA2 190-379aa fragment (Arabidopsis thaliana) (UniProt Q9LU68)
# T5 sequence: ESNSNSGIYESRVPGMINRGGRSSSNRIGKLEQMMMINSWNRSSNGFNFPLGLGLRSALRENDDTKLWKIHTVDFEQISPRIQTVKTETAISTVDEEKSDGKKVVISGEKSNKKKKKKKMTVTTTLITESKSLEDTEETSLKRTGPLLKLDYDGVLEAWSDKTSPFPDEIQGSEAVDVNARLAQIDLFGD
# B1: full-length NUCLEAR FACTOR Y, Subunit C9 (NF-YC9) in pACT2 (protein, UniProt Q8L4B2 1-231)
# chain: MDQQDHGQSGAMNYGTNPYQTNPMSTTAATVAGGAAQPGQLAFHQIHQQQQQQQLAQQLQAFWENQFKEIEKTTDFKNHSLPLARIKKIMKADEDVRMISAEAPVVFARACEMFILELTLRSWNHTEENKRRTLQKNDIAAAVTRTDIFDFLVDIVPREDLRDEVLGSIPRGTVPEAAAAGYPYGYLPAGTAPIGNPGMVMGNPGGAYPPNPYMGQPMWQQQAPDQPDQEN
# B2: full-length ABSCISIC ACID … 3 (ABI3) in pACT2 (protein, UniProt Q01593 1-720)
# chain: MKSLHVAANAGDLAEDCGILGGDADDTVLMDGIDEVGREIWLDDHGGDNNHVHGHQDDDLIVHHDPSIFYGDLPTLPDFPCMSSSSSSSTSPAPVNAIVSSASSSSAASSSTSSAASWAILRSDGEDPTPNQNQYASGNCDDSSGALQSTASMEIPLDSSQGFGCGEGGGDCIDMMETFGYMDLLDSNEFFDTSAIFSQDDDTQNPNLMDQTLERQEDQVVVPMMENNSGGDMQMMNSSLEQDDDLAAVFLEWLKNNKETVSAEDLRKVKIKKATIESAARRLGGGKEAMKQLLKLILEWVQTNHLQRRRTTTTTTNLSYQQSFQQDPFQNPNPNNNNLIPPSDQTCFSPSTWVPPPPQQQAFVSDPGFGYMPAPNYPPQPEFLPLLESPPSWPPPPQSGPMPHQQFPMPPTSQYNQFGDPTGFNGYNMNPYQYPYVPAGQMRDQRLLRLCSSATKEARKKRMARQRRFLSHHHRHNNNNNNNNNNQQNQTQIGETCAAVAPQLNPVATTATGGTWMYWPNVPAVPPQLPPVMETQLPTMDRAGSASAMPRQQVVPDRRQGWKPEKNLRFLLQKVLKQSDVGNLGRIVLPKKEAETHLPELEARDGISLAMEDIGTSRVWNMRYRFWPNNKSRMYLLENTGDFVKTNGLQEGDFIVIYSDVKCGKYLIRGVKVRQPSGQKPEAPPSSAATKRQNKSQRNINNNSPSANVVVASPTSQTVK
# B3: full-length ARABIDOPSIS RESPONSE REGULATOR 3 (ARR3) in pACT2 (protein, UniProt Q9ZWS9 1-231)
# chain: MAKDGGVSCLRRSEMIGIGIGELESPPLDSDQVHVLAVDDSLVDRIVIERLLRITSCKVTAVDSGWRALEFLGLDDDKAAVEFDRLKVDLIITDYCMPGMTGYELLKKIKESTSFKEVPVVIMSSENVMTRIDRCLEEGAEDFLLKPVKLADVKRLRSYLTRDVKVAAEGNKRKLTTPPPPPPLSATSSMESSDSTVESPLSMVDDEDSLTMSPESATSLVDSPMRSPGLA
# B4: full-length CIA2 (CIA2FL) in pAS2-1 or pACT2 (protein, UniProt Q9LU68 1-435)
# chain: T1 sequence
# B5: full-length NUCLEAR FACTOR Y, Subunit C1 (NF-YC1) in pACT2 (protein, UniProt Q9SMP0 1-234)
# chain: MDTNNQQPPPSAAGIPPPPPGTTISAAGGGASYHHLLQQQQQQLQLFWTYQRQEIEQVNDFKNHQLPLARIKKIMKADEDVRMISAEAPILFAKACELFILELTIRSWLHAEENKRRTLQKNDIAAAITRTDIFDFLVDIVPRDEIKDEAAVLGGGMVVAPTASGVPYYYPPMGQPAGPGGMMIGRPAMDPNGVYVQPPSQAWQSVWQTSTGTGDDVSYGSGGSSGQGNLDGQG
# B6: full-length NUCLEAR FACTOR Y, Subunit B1 (NF-YB1) in pACT2 (protein, UniProt Q9SLG0 1-141)
# chain: MADTPSSPAGDGGESGGSVREQDRYLPIANISRIMKKALPPNGKIGKDAKDTVQECVSEFISFITSEASDKCQKEKRKTVNGDDLLWAMATLGFEDYLEPLKIYLARYRELEGDNKGSGKSGDGSNRDAGGGVSGEEMPSW
# Molecular target: T1, full-length CIA2 (CIA2FL) in pAS2-1 or pACT2 (Arabidopsis thaliana)
# Experiment: two-hybrid; pairwise: GAL4 BD fusions in pAS2-1 (target) and GAL4 AD fusions in pACT2 (binder) in AH109; growth on SD/-Leu-Trp-His with various concentrations of 3-AT (20 or 50 mM), 30 °C, 6-9 days; colony-lift filter assay for lacZ
row,binding,Molecule
1,binds,CO 298-373aa fragment (from UniProt Q39057 298-373) (domain or fragment)
2,binds,full-length CONSTANS (COFL) in pACT2 (from UniProt Q39057 1-373)
3,binds,CO 181-373aa fragment (from UniProt Q39057 181-373) (domain or fragment)
4,binds,B1
5,binds,B2
6,binds,B3
7,binds,B4
8,binds,B5
9,binds,B6

# Molecular target: T2, CIA2 330-435aa fragment (Arabidopsis thaliana)
# Experiment: as above
row,binding,Molecule
1,no binding,CO 298-373aa fragment (from UniProt Q39057 298-373) (domain or fragment)
2,no binding,full-length CONSTANS (COFL) in pACT2 (from UniProt Q39057 1-373)
3,no binding,CO 181-373aa fragment (from UniProt Q39057 181-373) (domain or fragment)
4,binds,B4

# Molecular target: T3, CIA2 1-189aa fragment (Arabidopsis thaliana)
# Experiment: as above
row,binding,Molecule
1,binds,CO 298-373aa fragment (from UniProt Q39057 298-373) (domain or fragment)
2,binds,full-length CONSTANS (COFL) in pACT2 (from UniProt Q39057 1-373)
3,binds,CO 181-373aa fragment (from UniProt Q39057 181-373) (domain or fragment)
4,binds,B1
5,binds,B2
6,binds,B3
7,binds,B4
8,binds,B5
9,binds,B6

# Molecular target: T4, CCT motif of CIA2 (CIA2 379-435aa) (Arabidopsis thaliana)
# Experiment: as above
row,binding,Molecule
1,no binding,CO 298-373aa fragment (from UniProt Q39057 298-373) (domain or fragment)
2,no binding,full-length CONSTANS (COFL) in pACT2 (from UniProt Q39057 1-373)
3,no binding,CO 181-373aa fragment (from UniProt Q39057 181-373) (domain or fragment)
4,no binding,B1
5,no binding,B2
6,no binding,B3
7,no binding,B4
8,no binding,B5
9,no binding,B6

# Molecular target: T5, CIA2 190-379aa fragment (Arabidopsis thaliana)
# Experiment: as above
row,binding,Molecule
1,no binding,CO 298-373aa fragment (from UniProt Q39057 298-373) (domain or fragment)
2,no binding,full-length CONSTANS (COFL) in pACT2 (from UniProt Q39057 1-373)
3,no binding,CO 181-373aa fragment (from UniProt Q39057 181-373) (domain or fragment)
